These results are taken from the supplement of paper PMC11417369.

This is one part of the list.

The subject of this experiment is PfAP2-HC AP2 domain (GST-tagged). Kind of experiment: gcPBM binding intensity (ln(normalized median fluorescence intensity)); higher = stronger DNA binding. A digest of the protocol:
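The binding buffer was 1× PBS containing 1% milk, 0.2 mg/ml BSA, 0.5% salmon testes DNA and 0.03% Triton X-100. In it, GST-tagged P. falciparum DNA-binding domains expressed in E. coli were applied for 1 h to an Agilent 4 × 180k array of primer-extended double-stranded 36-bp intergenic genomic probes plus negative controls. Binding intensity, read with Alexa488 anti-GST antibody and a 488 nm scan, is the highest Masliner-normalised natural-log median intensity across replicate spots of either probe orientation.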
Regarding “CTAATGATCATATATACACACACACTAATAAAAAAA [CACACA_site9329]”, the “gcPBM binding intensity (ln)” value worked out at 10.4.

Take “TATATTTAGATATATACACACATTAGCATTTTCATA [CACACA_site6902]”: the “gcPBM binding intensity (ln)” value was found to be 9.72. Regarding “AAAGAATTTGCATATACACACAAAAAGATATATACA [CACACA_site6318]”, the “gcPBM binding intensity (ln)” value was 10. With “GTATATATTTTTATTTAATAATTTGTTTATTTATTC [CACACA_negctrl_site647]” the figure was 9.73; with “CATACATATACATACAGTACATATTTTTTGTCAATT [XGTACX_site7357]”, 9.81.

As to “AACGAAAACACTACGTGTACCAAACGTCCTACTAAC [XGTACX_site4915]”, the “gcPBM binding intensity (ln)” value came to 9.86. With “TTATATGGCTCCATTTGTACGCATCCATGTTTTTAT [XGTACX_site6590]” the figure was 9.84. The value for “GTATGTATATATATATGTACATACTGTTTATCGTTA [XGTACX_site6168]” was 9.79; that for “AAAAAAAAAAAAAAAGCACACATCATATTATAATTC [CACACA_site3355]” was 9.7; that for “AAAAAAACATAACAAAATGAAACAAAACAAAAAGAA [GTGCAC_negctrl_site577]” was 9.9. The value for “AGTTATTAAAAATGTGCATGCAATGGTTTCTCTTAA [TGCATGCA_site634]” was 9.79; that for “ATTTATAATGATTTTTTTAGTAATCTTGTTATTTTT [XGTACX_negctrl_site373]” was 9.59. Regarding “AGGAGGTCAGTTCACAGTACCCAGAAACTCTACGAG [XGTACX_site2006]”, the “gcPBM binding intensity (ln)” value was found to be 9.28. With “TGAGCTTCAACAATATGTACATAAAATATATTACAT [XGTACX_site4763]” the figure was 9.69. With “TTAATAAAAGCCCATGCACACCTTAGAAAGTTTTAT [CACACA_site8003]” the figure was 9.68. With “GTATTATAGTATAATACACACCCAAATATTAAAAAG [CACACA_site7404]” the figure was 9.95; with “TTTCTTAAAATGTTATGTACATATTTCGTTTCAAAG [XGTACX_site6102]”, 9.49. As to ATATATTTCAAAGGGGTGCAGGCATATTTAAGCAAA, the “gcPBM binding intensity (ln)” value was found to be 9.64. The value for “TCTTTTTAATTTATATGTACTTATATTAATTATAAG [XGTACX_site7524]” was 9.59; that for “GTGCATATACAAATATGTACTTAAACGTTTTTTTTT [XGTACX_site7362]” was 9.8.

For “TTTTTCTTTTGATGTTGTACATATATATCATATAAT [XGTACX_site1189]”, the “gcPBM binding intensity (ln)” value is 9.68. With “GTTTATTCATCATACGGTACACATAAATAATATATA [XGTACX_site6931]” the figure was 9.66. The value for “AAGACTTCTCCATATACACACACCAACAAATATAAA [CACACA_site2779]” was 10; that for “GATGAATAAATCAAAGCACACATACACCCACATATA [CACACA_site7986]” was 11.2; that for “TTCGTTTAAATCAAGTGTACATATTATATATAATAT [XGTACX_site7599]” was 9.74. As to “ATTTTTTTTTTTTTTTTTTGGTTTTCTTTAGGAGTT [CACACA_negctrl_site1258]”, the “gcPBM binding intensity (ln)” value stood at 9.46. “CGTTATATATGTATTACATGCAATATATGTACGTAA [TGCATGCA_site274]”: the “gcPBM binding intensity (ln)” value was 9.64. With “TAAATAATATCCCTTTGTACGTATTTTTTTTTATTA [XGTACX_site7303]” the figure was 9.77. As to “GAAATAAGTTAAAATAGTACGTAGTGTTCCTTAAGT [XGTACX_site6557]”, the “gcPBM binding intensity (ln)” value stood at 9.81.

In the case of “TTAGGAAAACAAAAATGTACGCATATATATTATTGA [XGTACX_site8288]”, the “gcPBM binding intensity (ln)” value amounted to 9.62. The value for “TTAAAAATAATATATTGTACACATACTTATTTTAAT [XGTACX_site1348]” was 9.67; that for “ATATATCTGTATGGCACACACGGATAAATATATATA [CACACA_site4668]” was 10; that for “TATATTTGTACATGATATTTTTTTTTTCTTTTAAAA [CACACA_negctrl_site754]” was 9.43. With “TGTATTTAGAAACATACACACATATTAAGTTTACAT [CACACA_site5689]” the figure was 9.85; with “GGAAAATTATCAATAGCATGCAAAATGTGAATATTA [TGCATGCA_site901]”, 9.86; with “TTTCCTCATTTTATCATACACACTTATTTATATGTG [CACACA_site900]”, 9.86.

On to “GCCAAAATATAATTTACACACTTATTAAATAATTAT [CACACA_site236]”, for which the “gcPBM binding intensity (ln)” value was determined as 9.62. The value for “AGAATAATACAAAAATGTACATTAATAAAAAGATAG [XGTACX_site780]” was 10.4. With “ATAGTATCTGGTAGCTGTACGAGTCGTAGAGAGTAG [XGTACX_site2546]” the figure was 9.7; with “TTATTATTTCTTAGTAGTACTATATAATTTTTTTTT [XGTACX_site1847]”, 9.72. The value for “TAATAACTACAAAAAAAAAAGAAAAATAGAAAAAGG [CACACA_negctrl_site1102]” was 9.58. Consider “TCGTGTTAAACTTTTACACACAAACTTGCAATAATT [CACACA_site7745]”, for which the “gcPBM binding intensity (ln)” value worked out at 9.94. Turning to “TGCTTTATTATTTATTGTACATGTAAAATGAGAGAG [XGTACX_site2288]”, the “gcPBM binding intensity (ln)” value stood at 9.5. With “TTTGTTTAAATTAAATGTACATAAAGAATAATATAT [XGTACX_site5093]” the figure was 9.57. “AATTATATGAAATAAACACACATATGTAATATTACA [CACACA_site1928]”: the “gcPBM binding intensity (ln)” value was found to be 9.95.

In the case of “AGAAGGTAAATAATTTACCCATATATATAAATATAT [GTGCAC_negctrl_site631]”, the “gcPBM binding intensity (ln)” value worked out at 9.48. Consider ATTGAATATGGATATGTGCACATATGTATATAAGTA, for which the “gcPBM binding intensity (ln)” value was 10.2.

Regarding “AAAACATTGTTGAACTGTTTTATTTATAAATATAAG [XGTACX_negctrl_site393]”, the “gcPBM binding intensity (ln)” value stood at 9.27. The value for “ATATATATACTGTGTACACACATATGTATTTATATA [CACACA_site4600]” was 9.99; that for “AAAAAAGTTGTATTTGCACACATAAAAAAAAGATAT [CACACA_site3839]” was 9.93; that for “AATTTAAAAATGGACACACACAAAAAATAATACTTA [CACACA_site250]” was 10.7. The value for “GTATATTATATTGGGTGTACCATATATAATATAATC [XGTACX_site8579]” was 9.53. As to “TTATAAATAAAAAATACACACATATATATATATATA [CACACA_site207]”, the “gcPBM binding intensity (ln)” value worked out at 9.57. For the sequence AAAAATTAACAAAAGGTGCAATTTATTTATTAACGG, the “gcPBM binding intensity (ln)” value came out at 9.6. The value for “TATTTTAATATGTATACATGCATACCTACTCATACA [TGCATGCA_site779]” was 9.67; that for “TAAAATTTTATAAAGGAACACACATTTTTTTTTTTT [CACACA_site8740]” was 9.65; that for “AACTTGTATTTATACACACACACACTGTCTTTTTTT [CACACA_site7009]” was 10.5. As to “TAGACAAAATATAATGCACACTATTATTTTTATTTA [CACACA_site5508]”, the “gcPBM binding intensity (ln)” value was 9.65.

Consider “AAGAAAAATATATAAATAAATAAATATATAAATATA [CACACA_negctrl_site836]”, for which the “gcPBM binding intensity (ln)” value was determined as 9.61. Turning to TAAAAATATATATGATTGCACTTAGGACAATATATA, the “gcPBM binding intensity (ln)” value is 9.62. With “GGAAACAAAAAATATATACACACTAATCATAAAAAA [CACACA_site7890]”, the “gcPBM binding intensity (ln)” value turned out to be 9.82.

As for “ATTAATATATTATCATGTACACAAAAATAATTTTAT [XGTACX_site7257]”, the “gcPBM binding intensity (ln)” value came out at 9.59. The value for “TATTCTCTCTTATGAACACACATTTTTATTTTCAAA [CACACA_site7554]” was 9.77. On to “TTTTAATAAAAGCCCATGCACACCTTAGAAAGTTTT [CACACA_site346]”, for which the “gcPBM binding intensity (ln)” value was found to be 9.56. With “ATATATATGTGTAAAAGTACATATATTTTGAAATAT [XGTACX_site4024]” the figure was 9.82. Consider “TAAATATATATTATATGTACTTATATATATATATAT [XGTACX_site4448]”, for which the “gcPBM binding intensity (ln)” value came to 9.57.

In the case of “TAAATCAGCCATAACACACATACATATATACATAAA [CACACA_site396]”, the “gcPBM binding intensity (ln)” value is 9.95. With “TTTTTCATTTTTAAAATAATTATAATATTATACATA [XGTACX_negctrl_site43]” the figure was 9.19.

As for “ATAATTAACAAATACACACACACACGCCCACAAAAA [CACACA_site6389]”, the “gcPBM binding intensity (ln)” value stood at 11.6. With “AGCAAATAAATAAATAAATAAATAAATATATATATA [TGCATGCA_negctrl_site40]” the figure was 9.61. The value for “CAATCAAATGGACACACACACACCTAAACATAAAAG [CACACA_site5524]” was 10.5; that for “ATTAAAAAATTACAAGCATGCTTGTTAAAATTTTTT [TGCATGCA_site941]” was 9.42. With “CTTTTTTTTTTAAATTGTACAAATGTGATGTAATAG [XGTACX_site3219]” the figure was 9.24. For “TGGGCACCCATATACACACACAAATACAATGATAAA [CACACA_site4762]”, the “gcPBM binding intensity (ln)” value is 9.91. The value for “TATATATATGTATATGTGCACAGTTTTCTTATTAAA [GTGCAC_site9990]” was 9.63. “GGAAAAGGTATCCGTTCACACATAAATGGATACCAT [CACACA_site5072]”: the “gcPBM binding intensity (ln)” value amounted to 9.49.

For “AAAAAAAAAAAAATGTGTACATACATATATTTATAT [XGTACX_site3076]”, the “gcPBM binding intensity (ln)” value turned out to be 9.74. With “TCTATATAGATTTGCACACATAAAAATGCTTATATA [CACACA_site2389]” the figure was 9.81. The value for ATTACATATTGATAAGTGCAAGTGTGAGAAATGTTA was 9.82; that for “AATATATTATATATATGTACATATGTGTATACATTT [XGTACX_site937]” was 9.79; that for “TTTTATTTATTTTATTGTACATATATAAAACTATGA [XGTACX_site3476]” was 9.44. With “TTTTTTTTTTTTGAAACATGCATTGTTTTATTCTTA [TGCATGCA_site15]” the figure was 9.46; with “TCTATACCTATTCTTACACACATATGTATATATATA [CACACA_site563]”, 10.1; with “AAAAAAAGATTATACACACACATATATAAACCTACA [CACACA_site710]”, 10.7. “TTTTTTTTTTTTTGTTGTACAATACTTAATCATTAT [XGTACX_site3422]”: the “gcPBM binding intensity (ln)” value is 9.6. “ATATATATATAATCAAGTACACAGTAATAAAAAGAA [XGTACX_site1070]”: the “gcPBM binding intensity (ln)” value stood at 10.2. The value for “AATAATAACTGTAGGTGTACGTAAAAAAAAAATTAT [XGTACX_site3133]” was 9.92; that for “ATTGTGTTCATCAGCACACACAACATCATGCAATAA [CACACA_site6960]” was 9.9; that for “TAAATGCACATATACACACACCCAATTTTAAGTTTT [CACACA_site7428]” was 10.9.
